The list shows a part of the results. The energies were worked out here from pooled read counts, against the library average; single values are noisy.

The target in this assay is T1, Pho4 (S. cerevisiae) (UniProt P07270).
T1 sequence: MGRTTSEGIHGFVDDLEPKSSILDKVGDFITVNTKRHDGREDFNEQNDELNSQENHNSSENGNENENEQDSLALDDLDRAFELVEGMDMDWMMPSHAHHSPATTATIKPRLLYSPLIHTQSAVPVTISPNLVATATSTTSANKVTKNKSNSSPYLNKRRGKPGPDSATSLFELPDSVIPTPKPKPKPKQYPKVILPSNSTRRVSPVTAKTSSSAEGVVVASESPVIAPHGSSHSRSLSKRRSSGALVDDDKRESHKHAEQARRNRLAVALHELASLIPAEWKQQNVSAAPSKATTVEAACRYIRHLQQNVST
Nature of the assay: relative binding free energy (BET-seq); higher = weaker binding. The following applies: reference: library average.
Turning to ATCGTCACGTGACGGT, the “relative binding free energy” value worked out at 0.09 kcal/mol.
Regarding TAGTTCACGTGGATGC, the “relative binding free energy” value was 0.38 kcal/mol.
Take TTATCCACGTGATAGT: the “relative binding free energy” value was 0.2 kcal/mol.
The figure for GTATGCACGTGAGTGT is 0.27 kcal/mol; for GAGAGCACGTGGTGAG it is -0.14 kcal/mol.
In the case of TATGTCACGTGTGTGA, the “relative binding free energy” value worked out at 0.05 kcal/mol.
Under AATTGCACGTGGTTAG stands -0.06 kcal/mol; under AATGTCACGTGGGATT, -0.04 kcal/mol; under ATTGACACGTGTGTGG, -0.09 kcal/mol.
In the case of TAAGTCACGTGTGTGG, the “relative binding free energy” value is 0.04 kcal/mol.
On to AGTTGCACGTGCTAGG, for which the “relative binding free energy” value was -0.09 kcal/mol.
As to AAGGTCACGTGGGCGT, the “relative binding free energy” value was -0.02 kcal/mol.
In the case of TTGTGCACGTGCGTTT, the “relative binding free energy” value is -0.02 kcal/mol.
Regarding GTCCTCACGTGTGGGG, the “relative binding free energy” value is 0.3 kcal/mol.
Under AGGGACACGTGAGGGT stands 0.14 kcal/mol; under TTAGGCACGTGGGGAT, -0.16 kcal/mol; under TTTAGCACGTGGCATT, -0.24 kcal/mol.
Regarding ATCGGCACGTGGGTAA, the “relative binding free energy” value is -0.16 kcal/mol.
On to GAGTTCACGTGTAGTG, for which the “relative binding free energy” value was found to be 0.29 kcal/mol.
Turning to GTGGGCACGTGCGAAG, the “relative binding free energy” value was -0.04 kcal/mol.
As to TTTGACACGTGGCGAT, the “relative binding free energy” value was -0.03 kcal/mol.
Take GGAAGCACGTGTGGGC: the “relative binding free energy” value is -0.05 kcal/mol.
GGAGTCACGTGGTTAA: the “relative binding free energy” value was determined as 0.15 kcal/mol.
Take GTTATCACGTGCTTAG: the “relative binding free energy” value was 0.09 kcal/mol.
The figure for GGAGTCACGTGGTGTA is 0.1 kcal/mol.
Under GGAGACACGTGCGGTG stands -0.1 kcal/mol.
As to TATTTCACGTGTTGAC, the “relative binding free energy” value worked out at 0.28 kcal/mol.
For GTTAGCACGTGATGAT, the “relative binding free energy” value amounted to 0.13 kcal/mol.
On to TGTGACACGTGAGTGT, for which the “relative binding free energy” value turned out to be 0.08 kcal/mol.
On to GGGTACACGTGCCTGG, for which the “relative binding free energy” value amounted to 0.21 kcal/mol.
Regarding TAATTCACGTGATAAT, the “relative binding free energy” value is 0.33 kcal/mol.
Consider GGTAACACGTGTTAGG, for which the “relative binding free energy” value was 0.06 kcal/mol.
Take TGGGTCACGTGAGAGC: the “relative binding free energy” value stood at 0.33 kcal/mol.
Turning to ATGCTCACGTGATGTG, the “relative binding free energy” value amounted to 0.27 kcal/mol.
For AGCGTCACGTGCGGGA, the “relative binding free energy” value was -0.02 kcal/mol.
Regarding GTGTACACGTGGGATT, the “relative binding free energy” value was found to be 0.01 kcal/mol.
For the sequence GAGTTCACGTGGGCAA, the “relative binding free energy” value amounted to 0.22 kcal/mol.
With TCGGACACGTGGGAGT, the “relative binding free energy” value is -0.05 kcal/mol.
In the case of GAGGACACGTGGCGGG, the “relative binding free energy” value was -0.04 kcal/mol.
On to CGTGGCACGTGAGGGC, for which the “relative binding free energy” value was found to be 0.09 kcal/mol.
As for GTGATCACGTGTCTGT, the “relative binding free energy” value stood at 0.1 kcal/mol.
ATTTACACGTGCTGTA: the “relative binding free energy” value was 0.11 kcal/mol.
With CATTTCACGTGGATGG, the “relative binding free energy” value turned out to be 0.17 kcal/mol.
Regarding AGGGGCACGTGATCGG, the “relative binding free energy” value is -0.08 kcal/mol.
Under GGTTGCACGTGGCTTA stands 0 kcal/mol; under GGTCTCACGTGGTGGC, 0.15 kcal/mol; under GAGAACACGTGGTTGT, 0.13 kcal/mol.
In the case of CCTTACACGTGGTGGG, the “relative binding free energy” value worked out at 0 kcal/mol.
Turning to TTTTCCACGTGTGTGT, the “relative binding free energy” value is 0.12 kcal/mol.
As for ATAATCACGTGGGCGT, the “relative binding free energy” value was determined as 0.06 kcal/mol.
For GTAAACACGTGGTATT, the “relative binding free energy” value amounted to 0.09 kcal/mol.
As to CATTTCACGTGGGTCG, the “relative binding free energy” value is 0.13 kcal/mol.
The figure for GTGGTCACGTGTGGTT is 0.29 kcal/mol; for TGGGACACGTGTAATA it is 0.25 kcal/mol; for TTTTGCACGTGCAATA it is 0.06 kcal/mol.
With AAAGTCACGTGGTGTA, the “relative binding free energy” value amounted to 0.01 kcal/mol.
Turning to ATTTGCACGTGGAGTC, the “relative binding free energy” value was determined as 0.18 kcal/mol.
For the sequence ATGGTCACGTGTCCGG, the “relative binding free energy” value is 0.15 kcal/mol.
Turning to ATAGGCACGTGATTCT, the “relative binding free energy” value was -0.03 kcal/mol.
Regarding GTTATCACGTGTTGGT, the “relative binding free energy” value stood at 0.24 kcal/mol.
GGTAACACGTGATGAG: the “relative binding free energy” value came to 0.22 kcal/mol.
Under GCTTGCACGTGGGTTT stands -0.05 kcal/mol.
Consider TGAATCACGTGTTTTC, for which the “relative binding free energy” value came out at 0.2 kcal/mol.
GGTGGCACGTGGTAGT: the “relative binding free energy” value was -0.11 kcal/mol.
In the case of CTTTTCACGTGTTCTG, the “relative binding free energy” value was 0.22 kcal/mol.
As for TTTCTCACGTGATTTT, the “relative binding free energy” value was found to be 0.2 kcal/mol.
Consider TGATGCACGTGGCGTA, for which the “relative binding free energy” value is -0.23 kcal/mol.
For the sequence TGTTCCACGTGGTTTG, the “relative binding free energy” value was -0.05 kcal/mol.
As to GCCTTCACGTGTTGGT, the “relative binding free energy” value amounted to 0.34 kcal/mol.
Under GGCTACACGTGGGGCG stands -0.02 kcal/mol.
Regarding TTGAGCACGTGTGTGT, the “relative binding free energy” value is -0.03 kcal/mol.
In the case of CTGTACACGTGAGGGC, the “relative binding free energy” value was found to be 0.28 kcal/mol.
With AGGGTCACGTGGCGCC, the “relative binding free energy” value is 0.14 kcal/mol.
With GGTTGCACGTGCTTTG, the “relative binding free energy” value came out at 0.02 kcal/mol.
Under AAAGTCACGTGTATGT stands 0.07 kcal/mol.
For the sequence GGGAGCACGTGTTGTT, the “relative binding free energy” value was -0.07 kcal/mol.
The figure for GAGAGCACGTGGTATT is -0.03 kcal/mol.
Take ATTATCACGTGTAAAA: the “relative binding free energy” value worked out at 0.21 kcal/mol.
Under GAACTCACGTGGGTGG stands 0.33 kcal/mol; under GTATTCACGTGGGCTG, 0.28 kcal/mol.
For the sequence TGAATCACGTGTTGAG, the “relative binding free energy” value amounted to 0.21 kcal/mol.
Under GGTATCACGTGAGTCT stands 0.39 kcal/mol.
As for TTTTTCACGTGTGGTC, the “relative binding free energy” value came out at 0.31 kcal/mol.
The figure for GATTCCACGTGTTGGT is 0.08 kcal/mol; for ATGAACACGTGGGGCG it is -0.16 kcal/mol.
Regarding GAAGACACGTGGTGTG, the “relative binding free energy” value is -0.04 kcal/mol.
GGCTTCACGTGTGGTC: the “relative binding free energy” value stood at 0.19 kcal/mol.
Turning to TGGATCACGTGATGTA, the “relative binding free energy” value came out at 0.2 kcal/mol.
As for TTATCCACGTGGAATT, the “relative binding free energy” value stood at 0.25 kcal/mol.
On to TTGGTCACGTGGCGGG, for which the “relative binding free energy” value was found to be 0.02 kcal/mol.
As to TATGTCACGTGTAGCT, the “relative binding free energy” value amounted to 0.07 kcal/mol.
On to GTTAACACGTGGACGT, for which the “relative binding free energy” value stood at 0.2 kcal/mol.
The figure for CGTAGCACGTGCGGGC is -0.11 kcal/mol.
For TTTATCACGTGCATTT, the “relative binding free energy” value came out at 0.13 kcal/mol.
As to ATTATCACGTGTAATC, the “relative binding free energy” value is 0.38 kcal/mol.
Take GATAGCACGTGTTTGG: the “relative binding free energy” value was -0.04 kcal/mol.
Under GTCTGCACGTGTTTAG stands 0.14 kcal/mol; under CATGACACGTGGGTTA, -0.15 kcal/mol.
CGGAACACGTGTTGGA: the “relative binding free energy” value came to 0.12 kcal/mol.
The figure for CAGGGCACGTGGTTGA is -0.1 kcal/mol.
Take CGCTGCACGTGGGGCG: the “relative binding free energy” value was -0.24 kcal/mol.
The figure for CCTTTCACGTGTAGTG is 0.19 kcal/mol; for TCGGCCACGTGTATTG it is 0.13 kcal/mol; for GAGAGCACGTGTGGGC it is 0.08 kcal/mol.
Take GGTTCCACGTGCGGTT: the “relative binding free energy” value turned out to be 0.05 kcal/mol.
On to TGTCACACGTGTGAGT, for which the “relative binding free energy” value was 0.13 kcal/mol.
With TTTCACACGTGTTGTG, the “relative binding free energy” value was -0.03 kcal/mol.
The figure for TGATACACGTGCGGGA is 0.04 kcal/mol.
For the sequence AGTGACACGTGGGTCA, the “relative binding free energy” value is -0.12 kcal/mol.
For TGGGTCACGTGCAGTC, the “relative binding free energy” value is -0.02 kcal/mol.
Take TATTTCACGTGAGATT: the “relative binding free energy” value was 0.37 kcal/mol.
As to TTATGCACGTGTGACT, the “relative binding free energy” value was -0.06 kcal/mol.
For GGATTCACGTGGGCTT, the “relative binding free energy” value is 0.19 kcal/mol.
Under TGTATCACGTGGGTTT stands 0.04 kcal/mol; under TGAGACACGTGCGTGG, -0.1 kcal/mol.

These data come from the BET-seq Pho4 binding data (Le et al. 2018).
